{"source": "the supplement of paper PMC11417369", "note": "This is one part of the list."}
{"system": "PfSIP2 AP2 domain 1 (GST-tagged)", "assay": "gcPBM binding intensity (ln(normalized median fluorescence intensity)); higher = stronger DNA binding", "outline": "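DNA-binding domains from P. falciparum, fused to GST and produced in E. coli, were put on an Agilent 4 × 180k double-stranded probe array for 1 h in 1× PBS holding 1% milk, 0.2 mg/ml BSA, 0.5% salmon testes DNA and 0.03% Triton X-100. Probes were primer-extended, 36 bp long and drawn from intergenic genomic regions, with negative controls included. After Alexa488 anti-GST antibody detection and a 488 nm scan, binding intensity was set as the highest Masliner-normalised natural-log median intensity across replicate spots of either probe orientation.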"}
{"sequence": "GTGCGTGCGTGTACTTAACACACATAATATGTATTT [CACACA_site8336]", "gcPBM binding intensity (ln)": 8.89}
{"sequence": "TAATTCCATAAGTAAACACACAAATGCCAAAATTTT [CACACA_site3205]", "gcPBM binding intensity (ln)": 6.86}
{"sequence": "ATATATAAAAATATTTGTACATATAGTTATATTTAT [XGTACX_site6114]", "gcPBM binding intensity (ln)": 7.03}
{"sequence": "TTAAGCCGCAATATGGGTACATAGGAAGAAGGGGAA [XGTACX_site8397]", "gcPBM binding intensity (ln)": 7.26}
{"sequence": "TTTCTTTTTCTAGTTATTTTTACTTATCCCTAATTT [TGCATGCA_negctrl_site460]", "gcPBM binding intensity (ln)": 7.09}
{"sequence": "TTATAATTAAGATATAATCAATAATAACAAATGAAC [CACACA_negctrl_site1690]", "gcPBM binding intensity (ln)": 7.29}
{"sequence": "TTCTTTGCTTCTGTTTCACACATTTTTAAAATAAGC [CACACA_site4741]", "gcPBM binding intensity (ln)": 7.72}
{"sequence": "TTAAAGGGAATGTATACACACGTTTCTCTATGTTAT [CACACA_site4793]", "gcPBM binding intensity (ln)": 6.63}
{"sequence": "CAAAAAAGGTCCCGGAGTACATATATAATTTTTTTT [XGTACX_site458]", "gcPBM binding intensity (ln)": 6.78}
{"sequence": "TATATATTGTTATATACACACATGTATATAAAAAAT [CACACA_site3221]", "gcPBM binding intensity (ln)": 6.85}
{"sequence": "GAGATGACATTACACAGTACCCAGGAAATCTACGGA [XGTACX_site4931]", "gcPBM binding intensity (ln)": 6.74}
{"sequence": "ATTGTCCTAAATACTACAAAGTAGATCTTTAATATT [CACACA_negctrl_site1795]", "gcPBM binding intensity (ln)": 6.94}
{"sequence": "AATGTCCTTATTTGCACACACACATATAAGAAATTT [CACACA_site3186]", "gcPBM binding intensity (ln)": 7.46}
{"sequence": "TATAATAAATCATATGCATGTTGAAAAAAAAAAAAA [TGCATGCA_site923]", "gcPBM binding intensity (ln)": 7.09}
{"sequence": "ATTTGAGAGTTAACAAAATATTTGGCCATCTTTTAT [XGTACX_negctrl_site447]", "gcPBM binding intensity (ln)": 6.68}
{"sequence": "AACTCATAGCGGTGTGCACACAAAAAATTAAAAAAA [CACACA_site3033]", "gcPBM binding intensity (ln)": 8.94}
{"sequence": "TCATAAATGAAACACACACACACATCTGGATACCCC [CACACA_site3332]", "gcPBM binding intensity (ln)": 7.25}
{"sequence": "ATTATATATATAAAGTGTACAAAAAAAAAAAAAAAA [XGTACX_site3134]", "gcPBM binding intensity (ln)": 7.19}
{"sequence": "ATATGTAGTTTTTACCTAATAAAAAAAAAAAAAAAA [CACACA_negctrl_site672]", "gcPBM binding intensity (ln)": 7}
{"sequence": "TAAACATATAAAAAGGGTACACATTAAACATAGTAT [XGTACX_site7096]", "gcPBM binding intensity (ln)": 7.16}
{"sequence": "AAATCATTCCTTTATTCACACAATATCTGTATTTAT [CACACA_site4407]", "gcPBM binding intensity (ln)": 6.89}
{"sequence": "TATAAAATAAAAATTATATATTTTAAATGGATACAA [TGCATGCA_negctrl_site284]", "gcPBM binding intensity (ln)": 7.01}
{"sequence": "AAAACAAATTAAAATCGTACAATTATAATGTTAATG [XGTACX_site180]", "gcPBM binding intensity (ln)": 7}
{"sequence": "ATAGCTAAGATAGCTTGTACATATATTTACATATAT [XGTACX_site3694]", "gcPBM binding intensity (ln)": 6.8}
{"sequence": "ATTTAAATGAAAAAATGTACAAAAAGATTTAAACTC [XGTACX_site1489]", "gcPBM binding intensity (ln)": 7.23}
{"sequence": "ATGCACATTTATAAAAGTACATGTATGTAATATGTT [XGTACX_site830]", "gcPBM binding intensity (ln)": 7.2}
{"sequence": "ATATTTTGTTATGTAGATGTTGGTAGGAATTTTGGT [CACACA_negctrl_site1104]", "gcPBM binding intensity (ln)": 7.21}
{"sequence": "AATAAATAAATAAATAAAACAAAGGGATTACATACA [TGCATGCA_negctrl_site513]", "gcPBM binding intensity (ln)": 7.01}
{"sequence": "CACAACATATATATATATATATATATATATATGTGT [CACACA_negctrl_site28]", "gcPBM binding intensity (ln)": 8.7}
{"sequence": "TTAAAAAAATATTGAAGTACACACATTATAAACTTT [XGTACX_site3548]", "gcPBM binding intensity (ln)": 7}
{"sequence": "TACTTTTTAGGAAAGTGTACAAGCATATAAGGAATA [XGTACX_site2834]", "gcPBM binding intensity (ln)": 7.29}
{"sequence": "ATATAATAAAATTAATGTACATATATGTATTATATA [XGTACX_site3283]", "gcPBM binding intensity (ln)": 6.86}
{"sequence": "TTTCATATATATGAAACACACAAAGGAAAAAAAATT [CACACA_site4144]", "gcPBM binding intensity (ln)": 7.23}
{"sequence": "AACATAATCTCATATACACACAAAAATATTGAAATA [CACACA_site7085]", "gcPBM binding intensity (ln)": 7.06}
{"sequence": "AAAAAAAAAAAACACACACACATAGACCTCCAATAG [CACACA_site3562]", "gcPBM binding intensity (ln)": 7}
{"sequence": "ACAAGTTTATTTGTTGCACACATATAAGTAGAGAAA [CACACA_site8994]", "gcPBM binding intensity (ln)": 7.69}
{"sequence": "GCTCATATGACAACAACACACAAAAAAATAAAATGA [CACACA_site714]", "gcPBM binding intensity (ln)": 7.16}
{"sequence": "TAATAATATATTTGTAGTACACAATTTTTTATAACT [XGTACX_site3951]", "gcPBM binding intensity (ln)": 7.19}
{"sequence": "CACACGCACGGACACACACACATATAAAATCTATAT [CACACA_site6428]", "gcPBM binding intensity (ln)": 7.54}
{"sequence": "TGTTATTAAAATATAGTGCATAATTAACCATTATAA [GTGCAC_site9594]", "gcPBM binding intensity (ln)": 8.63}
{"sequence": "TACTTATATACACATGTATATTATATATATAATATA [XGTACX_negctrl_site335]", "gcPBM binding intensity (ln)": 7.31}
{"sequence": "TACTATAACAGACATACACACAAAAAAAAAAAAAAA [CACACA_site538]", "gcPBM binding intensity (ln)": 7}
{"sequence": "ATTTTTTTTTTTTTTTTTTTTTTTTTTTAATCTGGA [CACACA_negctrl_site1347]", "gcPBM binding intensity (ln)": 6.75}
{"sequence": "ATATTTAACAGGTTAAAAATATAAACAAATAAATAA [CACACA_negctrl_site907]", "gcPBM binding intensity (ln)": 6.85}
{"sequence": "GAGAGGATAGTTCACAGTACTCAGTAACTCTACGGA [XGTACX_site4875]", "gcPBM binding intensity (ln)": 6.62}
{"sequence": "AAAAAAAAATAATATACACACTCCAATATAAAAAAT [CACACA_site3958]", "gcPBM binding intensity (ln)": 6.94}
{"sequence": "TGTGTATTATAAACATGTACATAAAAATACGATATT [XGTACX_site3643]", "gcPBM binding intensity (ln)": 7.29}
{"sequence": "CGCACTAAAAAACACACACACACACCCATATATATA [CACACA_site4152]", "gcPBM binding intensity (ln)": 7.77}
{"sequence": "TTTTTCCCCCTTTTTTTGATTTTTATCTTAATTCTA [TGCATGCA_negctrl_site287]", "gcPBM binding intensity (ln)": 6.85}
{"sequence": "TATTATATTGTTCATTTACACTTTCATTTTAAAAAA [CACACA_negctrl_site260]", "gcPBM binding intensity (ln)": 7.11}
{"sequence": "AATGATGTTGTATTGTTTCGATATAACATCTAATTT [GTGCAC_negctrl_site309]", "gcPBM binding intensity (ln)": 6.66}
{"sequence": "TTTTTTAAAATAATAGGTACACATAAAAAAAAAAAA [XGTACX_site2517]", "gcPBM binding intensity (ln)": 7.26}
{"sequence": "AAGGATTATTTTAATCGTACATGTGTAAATAATATA [XGTACX_site6177]", "gcPBM binding intensity (ln)": 6.98}
{"sequence": "TTTTTTCATTTTTTATTTTTTTATTTTTTACATATT [GTGCAC_negctrl_site137]", "gcPBM binding intensity (ln)": 6.92}
{"sequence": "TATATATATAGACACACACACATATAAATAAATAAA [CACACA_site444]", "gcPBM binding intensity (ln)": 8.07}
